Laboratory results as given in PubChem BioAssay AID1347073 (National Center for Advancing Translational Sciences (NCATS), 2019).
The campaign covered roughly 45,000 compounds. About 200 (0.44%) were called active. Another 7% or so got no clear call; they are omitted. Calls come from the whole dose curve; as a rule, active = well fitted activation curve with a large enough effect; inconclusive = small, poorly fitted or top-dose-only effect; inactive = no such curve, though single readings can be large or run the other way. The list shows a part of the results.

Assay: qHTS of TDP-43 Inhibitors: NCGC Sytravon Library Screen; note: 0% is about no effect; nearly all actives have a fitted effect of over 55% in size
Conditions: yeast TDP-43 toxicity rescue, BacTiter-Glo growth, 24 h; series mostly up to 46.1 µM; growth rescue (activation): at the top concentration
Procedure, shortened: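 TDP-43-expressing yeast, pregrown in raffinose, seeded at OD600 0.02 in galactose medium with compound for 24 hr at 30 deg C. Growth read by BacTiter-Glo luminescence, so rescue of toxicity appears as activation.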

SMILES | growth rescue (activation)
CN(C)CCN1C(=O)C(=O)/C(=C(/O)c2ccccc2)C1c1ccccc1F (stereo not given) | inactive: -14.8%
O=C(O)c1sc2ncccc2c1OCc1ccccc1 | inactive: 5.24%
Cc1noc(C(=O)Nc2ccc(C#N)cc2)c1Cl | inactive: 0.801%
CCOC(=O)c1csc(NC(C)=O)n1 | inactive: 11.7%
CCC(c1nnnn1C1CCCCC1)N1CCN(C(=O)c2ccco2)CC1 (stereo not given) | inactive: 7.44%
CCc1ccc(N2CC(C(=O)Nc3ccc(S(=O)(=O)Nc4nccs4)cc3)CC2=O)cc1 (stereo not given) | inactive: 3.52%
CC(=O)c1ccc(N2CCN(c3ncccn3)CC2)c([N+](=O)[O-])c1 | inactive: 19.7%
O=C1COc2ccc(S(=O)(=O)NCCc3ccc(Cl)cc3)cc2N1 | inactive: 7.34%
CC(=O)c1ccc2c(c1)OCCOCCOCCO2 | inactive: -0.0146%
COc1cc(OC)c(S(=O)(=O)NC(C)C)cc1S(=O)(=O)NC(C)C | inactive: -7.4%
O=C(/C=C/c1ccccc1)NCCSCc1ccc(Cl)cc1 | inactive: 23.3%
O=C(CCC(=O)N1CCN(S(=O)(=O)c2ccc(Cl)cc2)CC1)NCc1ccccc1 | inactive: 1.47%
O=C(NC(=S)NNC(=O)c1ccccc1O)c1cccc([N+](=O)[O-])c1 | inactive: -24.4%
Cc1ccc(-c2n[nH]c3c2C(c2ccccc2)N(c2ccc(C(=O)O)cc2)C3=O)cc1 (stereo not given) | inactive: 11.6%
CCOc1ccccc1CNC(=O)c1cc2oc3ccccc3c2n1CC | inactive: 1.76%
O=c1oc2ccc(NS(=O)(=O)c3cccc4cccnc34)cc2s1 | inactive: -19.3%
Cc1ccccc1N=Nc1ccc(O)c2ncccc12 | inactive: -28.9%
O=C(/C=C/c1cc(Br)ccc1F)Nc1cccnc1 | inactive: 2.17%
Cc1cc(C)n(C(=O)CNC(=O)c2cccc(F)c2)n1 | inactive: -8.49%
Cc1ccc2nc(C(F)C(F)(F)F)[nH]c2c1 (stereo not given) | inactive: -15.8%
OCC1(Cc2ccccc2)CCN(Cc2cnc(-c3cccc4ccccc34)nc2)CC1 | inactive: 13.1%
Cc1cccc2c(CCNC(=O)c3ccc([N+](=O)[O-])cc3)c[nH]c12 | inactive: -5.44%
COc1ccc(CNC(=O)COC(=O)c2ccc(C(=O)c3ccccc3)cc2)cc1 | inactive: 13.3%
CN1CCN(c2ccc(S(=O)(=O)N3CCCCC3)cc2NC(=O)Cc2ccccc2F)CC1 | inactive: 4.26%

SMILES | growth rescue (activation)
CCCS(=O)(=O)N1CCC(C(=O)NCCCN(C)Cc2ccccc2)CC1 | inactive: 16.6%
Cc1cc(=O)n2[nH]c(NCc3ccccc3F)nc2n1 | inactive: -8.32%
COC(=O)C1C(=O)C2=C(CC1C)Nc1ccccc1NC2c1ccc(C)s1 (stereo not given) | inactive: -3.23%
CCOC(CNC(=O)Cc1c(C)nc2c(-c3ccccc3)c(C)nn2c1C)OCC | inactive: 10.6%
COc1ccc(S(=O)(=O)NCCSCc2ccco2)cc1 | inactive: 11.4%
O=C(c1ccc2ccccc2c1)N1CCCCC1 | inactive: 12.2%
O=C(NCCCN1CCOCC1)c1ccc2c(c1)N(Cc1cccc(Cl)c1)C(=O)CS2 | inactive: 8.55%
CCCCN(C(=O)CSc1nnc(-c2ccccc2)n1C)c1c(N)n(Cc2ccccc2)c(=O)[nH]c1=O | inactive: 8.7%
S=C(NCc1ccco1)Nc1ccc(N2CCOCC2)cc1 | inactive: 5.78%
COc1ccccc1N(CC(=O)NC1CCCCC1)S(=O)(=O)c1ccccc1 | inactive: 9.39%
CCOC(=O)C(=O)NC(C)CCc1ccccc1 (stereo not given) | inactive: 13.4%
COc1cccc(NC(=O)NC2CCN(CC(=O)Nc3ccccc3[N+](=O)[O-])CC2)c1 | inactive: 7.03%
O=C1Nc2ccccc2N(O)N1c1ccc(S(=O)(=O)Nc2ccccn2)cc1 | inactive: -7.59%
O=C1CN=C(Nc2ccc(Cl)cc2)N1c1ccccc1 | inactive: -17.6%
Cc1ccc(-c2csc3nc(CN(C)Cc4ccccc4)[nH]c(=O)c23)cc1 | inactive: -0.733%
COc1cc(NC(=S)NC(=O)c2ccccc2F)ccc1NC(=O)c1ccco1 | inactive: -5.82%
O=C(Nc1ccc(Cl)cc1F)C1CC(=O)N(Cc2ccco2)C1 (stereo not given) | inactive: 10.1%
CCCc1nc(-c2cc3ccccc3[nH]c2=O)no1 | inactive: 0.627%
O=C(Nc1ccc(Oc2ccccc2)cc1)c1csc([C@@H]2O[C@H](CO)[C@@H](O)[C@H]2O)n1 | inactive: 6.22%
CC(=O)C(C)n1c(CN(C)Cc2ccccc2)nc2c1c(=O)n(C)c(=O)n2C (stereo not given) | inactive: 12%
CC(NCc1cccs1)C(=O)Nc1cc(Cl)cc(Cl)c1 (stereo not given) | inactive: 9.77%
O=C(N/N=C/c1ccccc1F)C(=O)N1CCCCCC1 | inactive: 4.36%
Cc1ccc(SCCN)cc1C | inactive: -0.665%
COc1ccccc1-n1cnnc1SC(C)C(=O)Nc1cccc([N+](=O)[O-])c1 (stereo not given) | inactive: 14.8%

SMILES | growth rescue (activation)
COCCn1c(SCC(=O)N2CCCC(C)C2)nnc1-c1ccco1 (stereo not given) | inactive: 9.1%
COC(=O)c1ccc(CNC(=O)c2ccc3c(c2)OCCO3)cc1 | inactive: 14.6%
CCCNC(=O)c1cc(C2CCCN(S(=O)(=O)c3cccc4cccnc34)C2)on1 (stereo not given) | inactive: 5.93%
CCOC(=O)CN1C(=O)CCSc2ccc(Cl)cc21 | inactive: 17%
CN1N=C(C(=O)N2CCCC(C(=O)c3cccc(C(F)(F)F)c3)C2)CCC1=O (stereo not given) | inactive: 13.5%
CCOc1ccc2nc(SC3CC(=O)N(c4cccc(OC)c4)C3=O)sc2c1 (stereo not given) | inactive: 33%
CN1/C(=C\C(=O)CSc2nncn2C)C(C)(C)c2ccccc21 | inactive: 24.3%
COC(=O)C1CCN(C(=O)C2CC(=O)N(c3ccc(C)c(Cl)c3)C2)CC1 (stereo not given) | inactive: -7.89%
Cc1cc(C)c(C)c(S(=O)(=O)N2CCC(C(=O)NCC(c3ccccc3)N(C)C)CC2)c1C (stereo not given) | inactive: -4.63%
CC(C)CC(OC(=O)c1nsc(Cl)c1Cl)C(=O)NC1CCCC1 (stereo not given) | inactive: 17%
COc1ccc(C(C)(C)C)cc1NC(=O)c1cccc(S(=O)(=O)N2CCN(C(C)=O)CC2)c1 | inactive: 12.8%
COCCCNC(=S)Nc1cccc(S(=O)(=O)NC2=NCCC2)c1 | inactive: 7.52%
CCOc1ccc(CN(C)CC(O)COC(c2ccc(OC)cc2)c2ccc(OC)cc2)cc1 (stereo not given) | inactive: 4.82%
Cc1c(CNC(=O)C2CCC(=O)N(CCc3ccccc3)C2)cnn1C (stereo not given) | inactive: -29%
COc1ccccc1NC(=O)c1c(C)nc2ccccc2c1C(=O)O | inactive: 27.6%
CCOc1ccc(NC(=S)NCc2nc3ccccc3[nH]2)cc1 | inactive: -10.7%
O=C(NC(=S)N1CCN(Cc2ccccc2)CC1)c1ccccc1 | inactive: 27.2%
Cc1ccc(NC(=O)CN2C(=O)C(c3ccc(F)cc3)=NC2(C)C)c(C)c1 | inactive: 16.5%
CCOC(=O)/C=C(\C)Nc1cc(C)nn1-c1ccccc1 | inactive: 25.3%
Cc1ccc(NS(=O)(=O)c2cccs2)c(C)c1 | inactive: 7.86%
O=C(COC(=O)c1cccc([N+](=O)[O-])c1)c1ccc(OCc2ccccc2)cc1 | inactive: 15.9%
COc1ccc(OC)c(S(=O)(=O)N2CCC(C(=O)N3CCCC3)CC2)c1 | inactive: 2.18%
